Source: publication PMC8600046
No constants are given. Whether binding was seen depends on the method and setting. In cells and extracts the contact can be indirect. Some binding calls cover weakened binding; strength is not graded here.

The chains behind the UniProt entries cited, without tags or fusion partners.
UniProt P51648: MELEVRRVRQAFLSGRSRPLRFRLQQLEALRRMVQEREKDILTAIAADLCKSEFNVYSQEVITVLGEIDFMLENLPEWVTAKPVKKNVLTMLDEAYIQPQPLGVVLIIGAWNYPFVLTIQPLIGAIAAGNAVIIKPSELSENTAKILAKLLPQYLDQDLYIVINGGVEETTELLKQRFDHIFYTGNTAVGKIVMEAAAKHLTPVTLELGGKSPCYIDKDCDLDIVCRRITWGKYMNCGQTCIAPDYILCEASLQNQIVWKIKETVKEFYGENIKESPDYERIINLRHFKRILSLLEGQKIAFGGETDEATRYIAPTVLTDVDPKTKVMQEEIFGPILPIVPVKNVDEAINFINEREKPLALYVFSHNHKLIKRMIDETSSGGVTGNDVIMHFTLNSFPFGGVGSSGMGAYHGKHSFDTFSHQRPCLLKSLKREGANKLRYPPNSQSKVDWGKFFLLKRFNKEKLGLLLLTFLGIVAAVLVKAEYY
UniProt Q92968: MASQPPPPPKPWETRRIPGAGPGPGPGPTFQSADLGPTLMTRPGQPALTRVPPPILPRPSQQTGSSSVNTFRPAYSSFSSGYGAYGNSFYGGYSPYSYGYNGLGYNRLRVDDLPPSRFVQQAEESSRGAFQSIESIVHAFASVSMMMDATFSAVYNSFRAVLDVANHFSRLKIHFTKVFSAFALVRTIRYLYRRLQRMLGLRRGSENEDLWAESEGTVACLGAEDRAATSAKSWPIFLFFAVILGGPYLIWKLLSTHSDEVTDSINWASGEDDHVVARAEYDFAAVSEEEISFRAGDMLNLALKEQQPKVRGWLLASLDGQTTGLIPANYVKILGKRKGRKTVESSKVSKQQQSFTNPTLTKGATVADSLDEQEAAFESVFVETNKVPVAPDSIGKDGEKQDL

T1: ABCD3 (UniProt P28288)
T1 sequence: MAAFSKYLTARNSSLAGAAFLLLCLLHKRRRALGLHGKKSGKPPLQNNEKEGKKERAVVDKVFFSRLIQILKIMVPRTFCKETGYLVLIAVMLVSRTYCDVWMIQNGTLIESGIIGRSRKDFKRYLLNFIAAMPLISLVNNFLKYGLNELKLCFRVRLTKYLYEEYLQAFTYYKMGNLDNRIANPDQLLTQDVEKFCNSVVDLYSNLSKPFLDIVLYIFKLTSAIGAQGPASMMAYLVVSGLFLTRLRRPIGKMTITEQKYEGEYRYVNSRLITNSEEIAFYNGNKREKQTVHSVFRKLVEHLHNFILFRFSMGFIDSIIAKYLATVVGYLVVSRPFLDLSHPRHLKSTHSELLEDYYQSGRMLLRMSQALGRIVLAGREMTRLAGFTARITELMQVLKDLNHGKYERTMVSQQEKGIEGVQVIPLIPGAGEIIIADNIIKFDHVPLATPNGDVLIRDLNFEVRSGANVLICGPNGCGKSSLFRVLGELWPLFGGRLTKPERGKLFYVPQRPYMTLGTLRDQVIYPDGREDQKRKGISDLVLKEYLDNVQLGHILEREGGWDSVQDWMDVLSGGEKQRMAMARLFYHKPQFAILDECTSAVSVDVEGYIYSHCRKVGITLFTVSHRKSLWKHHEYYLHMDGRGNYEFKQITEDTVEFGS

T2: ACBD5 (UniProt Q5T8D3)
T2 sequence: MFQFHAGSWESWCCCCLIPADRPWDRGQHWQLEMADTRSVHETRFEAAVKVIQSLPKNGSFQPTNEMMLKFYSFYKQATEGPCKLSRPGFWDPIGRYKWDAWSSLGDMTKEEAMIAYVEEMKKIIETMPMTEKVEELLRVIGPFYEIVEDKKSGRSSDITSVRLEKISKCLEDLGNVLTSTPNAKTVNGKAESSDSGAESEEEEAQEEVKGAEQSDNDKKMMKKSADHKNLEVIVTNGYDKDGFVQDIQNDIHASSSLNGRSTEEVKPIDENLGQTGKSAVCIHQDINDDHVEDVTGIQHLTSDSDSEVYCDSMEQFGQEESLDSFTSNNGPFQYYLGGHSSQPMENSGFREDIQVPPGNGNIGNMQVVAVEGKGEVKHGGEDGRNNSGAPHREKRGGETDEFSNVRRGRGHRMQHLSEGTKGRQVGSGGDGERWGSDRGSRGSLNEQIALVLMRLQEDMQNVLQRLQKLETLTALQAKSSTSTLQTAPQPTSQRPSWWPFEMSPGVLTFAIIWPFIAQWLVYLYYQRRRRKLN

T3: FAR1 (UniProt Q8WVX9)
T3 sequence: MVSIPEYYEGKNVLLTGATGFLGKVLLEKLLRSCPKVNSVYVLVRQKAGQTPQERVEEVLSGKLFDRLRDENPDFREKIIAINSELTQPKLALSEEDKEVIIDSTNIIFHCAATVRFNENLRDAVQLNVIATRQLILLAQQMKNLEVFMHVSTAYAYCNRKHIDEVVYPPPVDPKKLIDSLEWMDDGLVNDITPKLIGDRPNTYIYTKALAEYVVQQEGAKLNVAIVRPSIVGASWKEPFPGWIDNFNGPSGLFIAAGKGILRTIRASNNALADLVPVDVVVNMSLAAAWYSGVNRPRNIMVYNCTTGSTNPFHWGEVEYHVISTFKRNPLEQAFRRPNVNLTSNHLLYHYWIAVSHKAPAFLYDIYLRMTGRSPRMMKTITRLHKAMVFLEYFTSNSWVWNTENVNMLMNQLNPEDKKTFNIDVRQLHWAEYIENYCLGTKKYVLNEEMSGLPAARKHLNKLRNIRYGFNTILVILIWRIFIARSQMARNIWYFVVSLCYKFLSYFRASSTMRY

T4: PEX12 (UniProt O00623)
T4 sequence: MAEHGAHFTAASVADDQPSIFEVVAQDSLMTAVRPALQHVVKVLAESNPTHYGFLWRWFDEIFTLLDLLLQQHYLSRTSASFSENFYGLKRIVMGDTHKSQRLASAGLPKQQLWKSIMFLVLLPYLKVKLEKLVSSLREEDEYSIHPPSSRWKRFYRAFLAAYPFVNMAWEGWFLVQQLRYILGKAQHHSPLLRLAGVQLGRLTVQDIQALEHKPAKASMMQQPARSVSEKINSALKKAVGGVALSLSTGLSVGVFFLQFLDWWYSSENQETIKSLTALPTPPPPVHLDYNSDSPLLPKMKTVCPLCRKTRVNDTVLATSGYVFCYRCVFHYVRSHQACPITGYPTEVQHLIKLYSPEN


Assays:
Assay in all cases: FRET or BRET; BRET in living HEK293 cells co-transfected with Rluc (donor) and YFP (acceptor) fusions, acceptor to donor ratio 3:1; read 48 h later with coelenterazine 30 μM; all eight combinations of N- or C-terminal fusions tested in duplicates; interaction assumed if at least one combination gave a BRET ratio above the threshold of 0.094
ABCD3 = target: T1, ABCD3
ACBD5 = target: T2, ACBD5
ALDH3A2 = ALDH3A2 (UniProt P51648)
FAR1 = target: T3, FAR1
PEX12 = target: T4, PEX12
PEX13 = PEX13 (UniProt Q92968)

Binder	binding (ABCD3)	binding (ACBD5)	binding (ALDH3A2)	binding (FAR1)	binding (PEX12)	binding (PEX13)
PEX26 p.Gly89Arg (protein, UniProt Q7Z412-1 1-305) MKSDSSTSAAPLRGLGGPLRSSEPVRAVPARAPAVDLLEEAADLLVVHLDFRAALETCERAWQSLANHAVAEEPAGTSLEVKCSLCVVRIQALAEMDRWQEVLSWVLQYYQVPEKLPPKVLELCILLYSKMQEPGAVLDVVGAWLQDPANQNLPEYGALAEFHVQRVLLPLGCLSEAEELVVGSAAFGEERRLDVLQAIHTARQQQKQEHSGSEEAQKPNLEGSVSHKFLSLPMLVRQLWDSAVSHFFSLPFKKSLLAALILCLLVVRFDPASPSSLHFLYKLAQLFRWIRKAAFSRLYQLRIRD	no binding	no binding	no binding	no binding	–	–
PEX26 p.Leu44Pro (protein, UniProt Q7Z412-1 1-305) MKSDSSTSAAPLRGLGGPLRSSEPVRAVPARAPAVDLLEEAADPLVVHLDFRAALETCERAWQSLANHAVAEEPAGTSLEVKCSLCVVGIQALAEMDRWQEVLSWVLQYYQVPEKLPPKVLELCILLYSKMQEPGAVLDVVGAWLQDPANQNLPEYGALAEFHVQRVLLPLGCLSEAEELVVGSAAFGEERRLDVLQAIHTARQQQKQEHSGSEEAQKPNLEGSVSHKFLSLPMLVRQLWDSAVSHFFSLPFKKSLLAALILCLLVVRFDPASPSSLHFLYKLAQLFRWIRKAAFSRLYQLRIRD	no binding	no binding	binds	no binding	–	–
PEX26 p.Pro117Leu (protein, UniProt Q7Z412-1 1-305) MKSDSSTSAAPLRGLGGPLRSSEPVRAVPARAPAVDLLEEAADLLVVHLDFRAALETCERAWQSLANHAVAEEPAGTSLEVKCSLCVVGIQALAEMDRWQEVLSWVLQYYQVPEKLLPKVLELCILLYSKMQEPGAVLDVVGAWLQDPANQNLPEYGALAEFHVQRVLLPLGCLSEAEELVVGSAAFGEERRLDVLQAIHTARQQQKQEHSGSEEAQKPNLEGSVSHKFLSLPMLVRQLWDSAVSHFFSLPFKKSLLAALILCLLVVRFDPASPSSLHFLYKLAQLFRWIRKAAFSRLYQLRIRD	no binding	no binding	binds	no binding	no binding	no binding

Other lines, results leading:

binding (ABCD3)	binding (ACBD5)	binding (ALDH3A2)	binding (FAR1)	binding (PEX12)	binding (PEX13)	Binder
binds	binds	binds	binds	binds	binds	peroxisome biogenesis factor 26 (PEX26) wild-type (protein, UniProt Q7Z412-1 1-305) MKSDSSTSAAPLRGLGGPLRSSEPVRAVPARAPAVDLLEEAADLLVVHLDFRAALETCERAWQSLANHAVAEEPAGTSLEVKCSLCVVGIQALAEMDRWQEVLSWVLQYYQVPEKLPPKVLELCILLYSKMQEPGAVLDVVGAWLQDPANQNLPEYGALAEFHVQRVLLPLGCLSEAEELVVGSAAFGEERRLDVLQAIHTARQQQKQEHSGSEEAQKPNLEGSVSHKFLSLPMLVRQLWDSAVSHFFSLPFKKSLLAALILCLLVVRFDPASPSSLHFLYKLAQLFRWIRKAAFSRLYQLRIRD
no binding	no binding	binds	no binding	–	–	PEX26 p.Leu45Pro (protein, UniProt Q7Z412-1 1-305) MKSDSSTSAAPLRGLGGPLRSSEPVRAVPARAPAVDLLEEAADLPVVHLDFRAALETCERAWQSLANHAVAEEPAGTSLEVKCSLCVVGIQALAEMDRWQEVLSWVLQYYQVPEKLPPKVLELCILLYSKMQEPGAVLDVVGAWLQDPANQNLPEYGALAEFHVQRVLLPLGCLSEAEELVVGSAAFGEERRLDVLQAIHTARQQQKQEHSGSEEAQKPNLEGSVSHKFLSLPMLVRQLWDSAVSHFFSLPFKKSLLAALILCLLVVRFDPASPSSLHFLYKLAQLFRWIRKAAFSRLYQLRIRD
no binding	no binding	binds	no binding	–	–	PEX26 p.Pro118Arg (protein, UniProt Q7Z412-1 1-305) MKSDSSTSAAPLRGLGGPLRSSEPVRAVPARAPAVDLLEEAADLLVVHLDFRAALETCERAWQSLANHAVAEEPAGTSLEVKCSLCVVGIQALAEMDRWQEVLSWVLQYYQVPEKLPRKVLELCILLYSKMQEPGAVLDVVGAWLQDPANQNLPEYGALAEFHVQRVLLPLGCLSEAEELVVGSAAFGEERRLDVLQAIHTARQQQKQEHSGSEEAQKPNLEGSVSHKFLSLPMLVRQLWDSAVSHFFSLPFKKSLLAALILCLLVVRFDPASPSSLHFLYKLAQLFRWIRKAAFSRLYQLRIRD
no binding	no binding	no binding	no binding	–	–	PEX26 p.Arg98Trp (protein, UniProt Q7Z412-1 1-305) MKSDSSTSAAPLRGLGGPLRSSEPVRAVPARAPAVDLLEEAADLLVVHLDFRAALETCERAWQSLANHAVAEEPAGTSLEVKCSLCVVGIQALAEMDWWQEVLSWVLQYYQVPEKLPPKVLELCILLYSKMQEPGAVLDVVGAWLQDPANQNLPEYGALAEFHVQRVLLPLGCLSEAEELVVGSAAFGEERRLDVLQAIHTARQQQKQEHSGSEEAQKPNLEGSVSHKFLSLPMLVRQLWDSAVSHFFSLPFKKSLLAALILCLLVVRFDPASPSSLHFLYKLAQLFRWIRKAAFSRLYQLRIRD
